# Results taken from PubChem BioAssay AID488969 (Vanderbilt High Throughput Screening Facility, 2010).
# The full ranking holds about 110,000 compounds; the median of “z-score” is about -0.1, and the highest 2% start at about 2. Some of the results follow. Activity calls are given as the source filed them.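 How the source made its calls: active means z-score in the third read window above 3 or below -3; inactive means the rest.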
# Target: Metabotropic glutamate receptor 8 (Rattus norvegicus) (UniProt P70579)
# UniProt P70579, sequence (P70579 whole entry, looked up): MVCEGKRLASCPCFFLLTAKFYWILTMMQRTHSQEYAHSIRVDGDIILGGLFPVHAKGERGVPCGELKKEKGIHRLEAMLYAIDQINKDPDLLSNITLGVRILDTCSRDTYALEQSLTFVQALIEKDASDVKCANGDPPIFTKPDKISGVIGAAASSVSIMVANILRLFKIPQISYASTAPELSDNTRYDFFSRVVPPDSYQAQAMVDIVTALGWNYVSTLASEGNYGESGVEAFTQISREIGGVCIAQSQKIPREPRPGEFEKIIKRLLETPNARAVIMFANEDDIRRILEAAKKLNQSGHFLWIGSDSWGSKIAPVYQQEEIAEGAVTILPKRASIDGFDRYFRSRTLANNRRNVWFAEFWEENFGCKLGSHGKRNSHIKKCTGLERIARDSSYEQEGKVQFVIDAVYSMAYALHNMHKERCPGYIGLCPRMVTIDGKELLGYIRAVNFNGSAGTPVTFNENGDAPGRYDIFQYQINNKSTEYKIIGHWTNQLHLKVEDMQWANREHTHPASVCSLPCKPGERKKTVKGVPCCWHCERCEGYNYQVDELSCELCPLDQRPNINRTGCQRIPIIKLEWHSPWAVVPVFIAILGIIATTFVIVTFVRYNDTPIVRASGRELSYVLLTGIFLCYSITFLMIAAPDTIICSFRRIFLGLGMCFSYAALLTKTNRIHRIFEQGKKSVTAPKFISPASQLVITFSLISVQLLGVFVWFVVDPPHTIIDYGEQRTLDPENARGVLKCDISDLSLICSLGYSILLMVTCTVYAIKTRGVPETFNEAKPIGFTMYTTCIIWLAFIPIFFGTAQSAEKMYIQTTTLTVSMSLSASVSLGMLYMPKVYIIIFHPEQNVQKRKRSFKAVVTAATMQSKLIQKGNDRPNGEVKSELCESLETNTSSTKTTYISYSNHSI
# Assay: rat mGluR8 modulators via GIRK flux, primary screen, cell-based, thallium flux, HTS (AID 488969)
# Conditions: HEK293 rat mGluR8, GIRK (G protein-gated inwardly rectifying potassium channel) thallium flux, FluoZin2; at 10 µM; stronger effect = higher value; submaximal glutamate (EC20) added with thallium
row,SMILES,z-score
1,OC(CCN1CCOCC1)(c1ccc(Cl)cc1)C1CCCCC1 (stereo unspecified),-0.807
2,O=C(COc1ccc([N+](=O)[O-])cc1Cl)NCCc1ccccc1,-0.38
3,CCOC(=O)c1sc2ncn(/N=C/N(C)C)c(=O)c2c1C,0.0203
4,Cc1cccc(NC(=O)C2CCCN(S(=O)(=O)c3cccc4cccnc34)C2)c1 (stereo unspecified),-0.0863
5,COC(=O)c1ccc2c(=O)[nH]c(CSc3nnc(C(F)(F)F)n3C)nc2c1,-0.0782
6,CCOC(=O)c1c(C)[nH]c(C(=O)COC(=O)c2cnc(C)cn2)c1C,-0.736
7,O=C(c1cccc(Cl)c1)N1CCCC(C(=O)N2CCCCCC2)C1 (stereo unspecified),0.315
8,COc1cccc(OCCc2c(C)n[nH]c2C)c1,1.21
9,Cc1ccc(/C=C/C(=O)NC2=NCCS2)cc1,-0.0354
10,Cc1cccc2sc(NC(=O)c3ccc(NS(=O)(=O)c4cccs4)cc3)nc12,-0.134
11,CC(c1ccccc1)n1c(NCCCn2ccnc2)nc2c1c(=O)[nH]c(=O)n2C (stereo unspecified),0.068
12,COc1ccc(CCC(C)NCC2CCCCC2)cc1 (stereo unspecified),0.819
13,CCn1c(SCC(=O)NC(=O)NCc2ccco2)nc2sc(C)c(C)c2c1=O,active: 3.05
14,O=C(Cn1c(=O)n(CCC(=O)N2CCc3ccccc3C2)c(=O)c2ccccc21)NCC1CCCO1 (stereo unspecified),-0.331
15,CCOc1cc(NC(=O)c2ccco2)c(OCC)cc1NC(=O)c1cc(OC)c(OC)c(OC)c1,-0.394
16,Cc1ccc(-c2cc(C(=O)NCCCn3ccnc3)c3cc(Br)ccc3n2)o1,0.0695
17,COc1ccc(-c2nc3ccccc3c(C(=O)Nc3ccc(S(=O)(=O)Nc4cc(C)on4)cc3)c2C)cc1,-0.279
18,CCCc1nnc(NC(=O)CCC(=O)N2CCN(CCOc3ccc(C)cc3)CC2)s1,-0.508
19,O=C(Nc1cccc(S(=O)(=O)N2CCCCCC2)c1)c1ccc2c(c1)OCO2,-0.732
20,CCN(CC)S(=O)(=O)c1ccc(Br)c(OC)c1,-0.193
21,CCC(=O)Nc1ccccc1C(=O)OC(c1ccccc1)c1ccccc1,-0.206
22,Cc1cccc(C(=O)NC(NCc2ccco2)C(Cl)(Cl)Cl)c1 (stereo unspecified),-0.117
23,Cc1ccc(CCC(=O)Nc2ccc(S(N)(=O)=O)cc2)o1,0.405

row,SMILES,z-score
1,O=C(COC(=O)CC1c2ccccc2CCN1S(=O)(=O)c1ccccc1)Nc1ccccc1 (stereo unspecified),-0.318
2,CC1(C)Cc2c(c(=S)nc(-c3ccccc3)n2CCN2CCOCC2)CO1,-0.443
3,CSc1nc(Oc2ccc(F)cc2F)cc(C(F)(F)F)n1,-0.141
4,C=CCc1cc(OC)ccc1OCC(O)CN1CCN(c2ccc(OC)cc2)CC1 (stereo unspecified),-0.217
5,CCOC(=O)/C(C#N)=C(/C)c1ccc(OC)cc1,0.395
6,CC(=O)c1cccc(NC(=O)c2ccc3c(Cl)c4c(nc3c2)CCCC4)c1,0.12
7,COc1ccc(CCNC(=O)CSc2nc(O)c(C(C)C)c(=O)[nH]2)cc1OC,-0.13
8,CC(C)(C)Nc1c(N)c(=O)oc2ccccc12,-0.0357
9,Cc1ccc(-n2c(SCc3cc(=O)n4ccsc4n3)nnc2-c2cccnc2)c(C)c1,-0.0941
10,C/C=C/c1ccc(OCCCn2cncn2)c(OC)c1,0.205
11,COc1cc(OC)cc(C(=O)N(Cc2cc3cc(C)ccc3[nH]c2=O)C(C)C)c1,-0.195
12,C/C=N/NC(=O)c1cc(Br)ccc1O,-0.0515
13,CS(=O)(=O)NCc1ccc(C(=O)NCCOc2ccccc2)cc1,0.0505
14,O=C(N/N=C/c1ccccn1)c1ccc(Br)o1,-0.0401
15,COc1ccc(/C=C2\CCC(C3CCCC3)C2=O)cc1Cn1cccn1 (stereo unspecified),-0.0698
16,Cc1nn2c(=O)c(NC(=O)c3ccc(F)cc3)cnc2s1,-0.186
17,CCOC(=O)C1CSc2[nH]c(=O)sc2C1c1ccccc1 (stereo unspecified),-0.412
18,CC1CN(C(=O)c2ccc(COCC(F)(F)F)o2)CC(C)O1 (stereo unspecified),-0.415
19,c1ccc(CSc2ncnc3c2oc2ccccc23)cc1,-0.0438
20,COc1ccc(N(C)S(=O)(=O)c2c(C)[nH]c(=O)[nH]c2=O)cc1,0.02
21,Cc1cccc(N/N=C2/COC(C)(C)CC2=O)c1,-0.253
22,COc1ccccc1NS(=O)(=O)c1cccc(C(=O)NN)c1,0.0093
23,Cc1ccc(NC(=S)NNC(=O)CSc2nnc(-c3ccc(Cl)cc3)n2C2CCCCC2)cc1,0.656

row,SMILES,z-score
1,CCOC(=O)N1CCN(C(=S)Nc2cccc(C)c2)CC1,-0.15
2,O=C(NCCCN1CCOCC1)c1cc(-c2ccc3c(c2)OCO3)nc2ccccc12,0.143
3,COC(=O)CN1C(=S)N(c2ccc(Cl)cc2)C(=O)C1CC(=O)Nc1ccc(F)cc1 (stereo unspecified),-0.000325
4,COCCNS(=O)(=O)c1cc(Br)ccc1OC,-0.824
5,O=C(Cn1c(-c2cncs2)nc2ccccc21)NC1CCCC1,-0.104
6,O=S(CC1CC1(Cl)Cl)CC1CC1(Cl)Cl (stereo unspecified),0.433
7,O=C(NCc1ccc2c(c1)OCO2)C12CC3CC(CC(C3)C1)C2,-0.186
8,CCN(c1cccc(C(F)(F)F)c1)S(=O)(=O)c1ccc2c(c1)CCN2C(C)=O,0.212
9,Cc1cnc(C(=O)Nc2ccc(N3CCOCC3)cc2)cn1,0.504
10,C=CCn1c(-c2ccc(OC)c(OC)c2)n[nH]c1=S,-0.372
11,O=C(NCc1ccco1)c1ccc2c(=O)n(-c3ccccc3)c(=S)[nH]c2c1,0.0493
12,COC(=O)Cc1ccc(NC(=O)c2ccc(C(C)(C)C)cc2)cc1,-0.0938
13,COc1ccc(S(=O)(=O)N2CCN(C)CC2)cc1C,0.151
14,COc1ccc(N=C2C(=Nc3ccc(OC)cc3)N(c3ccc(N(C)C)cc3)C(=S)N2c2ccc(OC)cc2)cc1,-0.108
15,CCOC(=O)CSc1snnc1C,0.0387
16,CCOC(=O)c1cnc(-n2nc(C)cc2C)nc1N(C)C,-0.262
17,Cc1cc(C(=O)NCC(=O)OCC(=O)N2CCCCCC2)ccc1[N+](=O)[O-],-0.275
18,CCOCCn1c(CN2CCN(c3ccc(F)cc3)CC2)nc2c1c(=O)n(C)c(=O)n2C,0.371
19,Cc1ccc(S(=O)(=O)N2CCC(C(=O)NCCN3CCCCCC3)CC2)cc1,0.917
20,Clc1cc(Sc2ccc(Br)cc2)nnc1-c1ccccc1,-0.683
21,O=C(CSc1nc(-c2ccco2)cc(C(F)(F)F)n1)Nc1ccc2c(c1)CCC2,-0.138
22,CCOc1cc(NC(=S)NCC2CCCO2)c(OCC)cc1NC(=O)c1ccc(C)cc1 (stereo unspecified),-0.0803
23,CC(C)=CC(=O)NCCc1ccccc1,-0.064

row,SMILES,z-score
1,O=C(c1ccco1)N1CCN(CC(=O)N2CCCc3c2c(=O)oc2ccc(O)cc32)CC1,0.248
2,CCOc1ccccc1OCC(=O)NN1Cc2ccccc2C1=N,-0.00532
3,Cc1nn(-c2ccccc2)c(C)c1/C=N/NC(=O)c1cc(-c2ccc(Br)s2)[nH]n1,-1.6
4,CCC(=O)c1ccc(N2CCN(C(=O)COc3ccc(F)cc3)CC2)c(F)c1,0.561
5,CCOC(=O)c1cccc(NC(=O)C2CCN(S(=O)(=O)c3cccs3)CC2)c1,-2.13
6,O=C(CSc1nc2cc([N+](=O)[O-])ccc2n1-c1ccccc1)NCc1ccc2c(c1)OCO2,-0.153
7,CN(C)c1ccc(NC(=S)N(CCc2ccccc2)C2CC(=O)N(c3c(Cl)cccc3Cl)C2=O)cc1 (stereo unspecified),0.0623
8,O=C1NC2=C(CCc3ccccc32)C(c2ccc(Br)cc2)N1 (stereo unspecified),-1.97
9,Cc1ccc([C@@H]2C3COCC=C3C(C#N)=C(N)C2(C#N)C#N)o1 (stereo partly specified),-0.744
10,Nc1nc2nonc2nc1N1CCCCC1,-0.205
11,Cc1ccc(Oc2ccc(C(=O)NC3CCSC3=O)cn2)cc1 (stereo unspecified),0.0747
12,CCOc1ccc(NC(=O)C(=O)NCCCn2ccnc2)cc1,0.096
13,CN1C(=O)c2ccccc2N(C)C1c1ccc2c(c1)OCO2 (stereo unspecified),-0.718
14,COc1ccc(Cn2ccnc2)cc1Br,-0.0251
15,COCCn1c(C)cc(C2=NNC(=Nc3ccc(F)cc3)SC2)c1C,0.377
16,CCN(CC)S(=O)(=O)c1ccc(C2=NOC3(C2)N(C)c2ccccc2C3(C)C)cc1 (stereo unspecified),-0.169
17,O=C(COC(=O)c1cc(=O)[nH]c2ccccc12)Nc1nc(-c2cccc(Br)c2)cs1,0.00537
18,CN(c1cccc(NC(=O)CSc2ccc(Cl)cc2)c1)S(C)(=O)=O,0.0636
19,Cc1cc(C(=O)CSc2nnc(C3COc4ccccc4O3)n2C)c(C)n1-c1ccc(F)cc1 (stereo unspecified),0.31
20,O=C(CSc1ccccn1)Nc1cccc(NC(=O)CSc2ccccn2)n1,-0.186
21,COCCCn1c(=O)c2ccccc2c2ccccc2c1=O,0.651
22,CNC(=O)COC(=O)c1ccc(-c2nc3ccccc3s2)s1,-0.18
23,CC(CCc1ccccc1)NC(=O)c1cccs1 (stereo unspecified),-0.437

row,SMILES,z-score
1,Cc1nc2sc3c(c2c2nnc(SCC(=O)NCc4ccco4)n12)CCCC3,-0.469
2,Cc1ccc(NCN2C(=O)C3C4CCC(C4)C3C2=O)cc1 (stereo unspecified),1.54
3,Cc1cccc(C)c1NC(=O)c1cccc(COc2cc(Cl)ccc2Cl)c1,0.157
4,Cc1nc2ccc(S(=O)(=O)NC(CC(C)C)C(=O)O)cc2s1 (stereo unspecified),0.62
5,CCOc1nc(-c2ccc(OC)cc2)ccc1-c1noc(-c2cc(OC)c(OC)c(OC)c2)n1,-0.00199
6,CCOC(=S)SCC(=O)Nc1nc(-c2ccc(Br)cc2)cs1,0.0099
7,CCOc1nc(N(C)C)nc(-n2nnc(C(C)=O)c2C)n1,-0.22
8,CCC(NC(=O)NCc1ccccc1)(C(F)(F)F)C(F)(F)F,0.361
9,CC1=C(C(=O)OCCOC(C)C)C(c2cccnc2)C2=C(CCCC2=O)N1 (stereo unspecified),0.00765
10,C=CCC(CC=C)(C(=O)O)c1ccccc1,0.46
11,O=C1CC(NCc2ccncc2)C(=O)N1c1ccccc1 (stereo unspecified),-0.442
12,CCn1c(-c2ccc(-c3ccccc3)cc2)c[nH]c1=S,active: 3.86
13,CCOC(=O)N/N=C/c1ccccc1F,0.544
14,CS(=O)(=O)N1CCN(CC2CC3C=CC2C3)CC1 (stereo unspecified),-0.21
15,COc1ccc(OC)c2c1CCC2=O,-0.492
16,Cc1ccc(NC(=O)/C=C\C(=O)O)c([N+](=O)[O-])c1,-0.264
17,CC(C)NC(=O)CCS(=O)(=O)c1cccc2nonc12,-0.265
18,O=C(CCc1ccccc1)Nc1ccccc1[N+](=O)[O-],0.126
19,Cc1[nH]n(-c2ccc([N+](=O)[O-])cc2)c(=O)c1C=NCCN1CCN(C(=O)c2ccc(Br)cc2)CC1,0.0353
